Measurements from PubChem BioAssay AID1794842 (National Center for Advancing Translational Sciences (NCATS), 2023).
Screen size: about 2,800 compounds; fewer than 10 were called active. The call rests on the fitted dose curve; in most records, active means well fitted curve in the direction sought with a large enough effect; inconclusive means small, poorly fitted or top-dose-only effect, or another doubt; inactive means no such curve, though single readings can be large or run the other way. The list shows a part of the results.

Target: Metallo-beta-lactamase type 2 (Klebsiella pneumoniae) (UniProt C7C422)
Assay: qHTS to identify inhibitors of the New Delhi Metallo-beta-lactamase (NDM): Meropenem screen against the machine-based learning selections. Further: % of control where 0% means no effect.
Settings: Purified NDM-1, meropenem hydrolysis, absorbance 300 nm; at 38.4 µM (top of the series) unless noted
How it was run: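 Hydrolysis by 2 nM NDM-1 was followed by absorbance after >30 min compound preincubation in HEPES pH 7.0 buffer with 1 uM Zn2SO4. For nitrocefin (16.7 uM, 15 min, 485 nm) and meropenem (50 uM, 30 min, 300 nm), each substrate ran on separate plates.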

Sequence of UniProt C7C422 (C7C422 whole entry, looked up): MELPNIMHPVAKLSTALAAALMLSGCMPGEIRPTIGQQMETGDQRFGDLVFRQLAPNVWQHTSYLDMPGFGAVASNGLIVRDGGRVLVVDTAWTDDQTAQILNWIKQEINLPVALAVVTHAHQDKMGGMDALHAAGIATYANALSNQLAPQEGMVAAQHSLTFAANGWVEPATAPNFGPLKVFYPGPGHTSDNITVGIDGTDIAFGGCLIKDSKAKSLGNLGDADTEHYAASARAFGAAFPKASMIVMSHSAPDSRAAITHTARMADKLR

Activity change, negative = inhibition, inactive:
Cc1ccccc1Nc1n[nH]c(C(O)c2cccc(C(F)(F)F)c2)n1 (centres undefined) -2.14% [at 57.5 µM]
Cc1ncc2c(c1CNC(=O)c1ccc3cccnc3c1O)CCNC2 43.7%
O=C1NC(=NC2CCCC2)C2(CCN([S+](=O)([O-])c3cccc(C(F)(F)F)c3)C2)N1c1cccnc1 (centres undefined) 0.362%
CN1C[C@H](NCc2cccc(Cl)c2)CCC[C@@H](C(=O)NC2CC2)CC1=O 0.224% [at 57.5 µM]
CC(=O)c1ccc(NC(=O)N2C[C@@H]3C[C@H](C2)c2ccc(NC(=O)CN(C)C)c(=O)n2C3)cc1 46.6%
Cc1ccccc1-c1cccc(CCOc2cnc3c(ccn3CC(=O)O)c2)c1 15.3% [at 57.5 µM]
O=C(NCC1CC1)c1ccnc(-c2nnc3ccc(Nc4ccccc4)nn23)c1 9.51% [at 57.5 µM]
O=C(NCC1CCOCC1)c1c[nH]c2ccccc12 -3.51%
CNc1ncc(C(=O)N2CCCC(CC=C(C)C)(C(=O)O)C2)cn1 (centres undefined) 5.66%
CC(=O)c1ccc(NC(=O)N[C@H]2CO[C@H]3[C@@H]2OC[C@@H]3n2nnnc2Oc2cccc(N(C)C)c2)cc1 10.6%
OC1(c2csc(CN3CCc4ccccc4C3)n2)CCN(C2CCOCC2)CC1 -3.56% [at 57.5 µM]
COc1ccccc1C(=O)NCc1nnc2cc(-c3nc(C4CC4)no3)ccn12 3.99%
CN(C)c1ccc(C(=O)N2CCN3C(=O)c4cc(-c5ccc6c(c5)OCO6)ccc4NC(=O)[C@H]3C2)cc1 12.9%
Cc1ccc2nc(CO[C@H]3CN(Cc4ccc(Cl)cc4)C[C@H]3F)[nH]c2c1 -0.84% [at 57.5 µM]
OCc1ccc(-c2cc(-c3ccncc3)c3cncn3c2)cc1 9.9% [at 57.5 µM]
COc1cccc(-c2cnc3[nH]cc(CC(=O)NCc4cccnc4)c3c2)c1 -0.122% [at 57.5 µM]
CC1=C[C@@H](CNS(C)(=O)=O)[C@H](C(C)C)C[C@H]1CC(=O)NC1CCCC1 1.69% [at 57.5 µM]
CC1=C[C@@H](CNC(=O)C2CC2)[C@H](C(C)C)C[C@H]1Cc1nc2ccncc2[nH]1 -1.76% [at 57.5 µM]
CC(C)NC(=O)NC[C@H]1OC[C@@H](NCc2cccc(C#N)c2)[C@@H]1O 0.107% [at 57.5 µM]
C[C@@H]1CN(C(=O)c2cccc(C#N)c2)C[C@]1(C)O -0.893%
C[C@H]1[C@@H]2[C@@H](O)C([C@H](C)C(=O)NCc3cccs3)CC[C@@]2(C)CC[C@@H]1NC(=O)COc1ccccc1 (some centres undefined) -1.92%
NC1(Cc2cc(C(=O)N3CCCCC3)on2)COC1 1.55% [at 76.7 µM]
COc1ccc2c(c1)CCN=C2C[C@H]1CN(C(=O)c2ccc(F)cc2)CC[C@H]1CC(=O)O 8.56% [at 57.5 µM]
COCCN1C[C@H]2CN(Cc3ccc(C(F)(F)F)cc3)CCN2C1=O 0.0122% [at 57.5 µM]
Cc1cccc(C)c1-c1nc(C(=O)NCCc2ccc(Cl)cc2)n2ccccc12 2.1%
Cc1ccccc1-c1[nH]nc2ncc(-c3cccc(O)c3)nc12 1.56% [at 57.5 µM]
Cc1nccn1-c1ccccc1CNC1CCC2(CCNCC2)CC1 37.8%
Cc1nn2cc(CCNCC3(O)CNCCOC3)nc2s1 (centres undefined) 5.26%
COc1ccc(NC(=O)N2CC[C@@H](CC(=O)O)[C@@H](CC3=NCCc4cc(OC)c(OC)cc43)C2)cc1 10.7%
N[C@@H](Cc1cnc[nH]1)C(=O)NCc1cccnc1Oc1ccc(F)cc1F 11.1%
Cc1cnc(C)c(N2CCN(C(=O)CCCc3c[nH]c4ccccc34)CC2)n1 5.45%
CC(C)c1nc2c(c(-c3ccc(O)cc3)n1)CN(C(=O)C1CC1)CC2 8.76% [at 57.5 µM]
COCc1cn(C[C@H]2C[C@@H](NS(C)(=O)=O)[C@H](O)[C@@H]2O)nn1 47% [at 57.5 µM]
CCCNC(=O)N(C1CCOCC1)C1CCN(C(=O)c2cccc(C(F)(F)F)c2)CC1 -0.606%
CC(C)Cc1cn(CC2CCCN(C(=O)c3ccc4c(c3)CCO4)C2)nn1 (centres undefined) 0.617%
CCc1nncn1C1CCN(S(=O)(=O)c2ccc(C)cc2C)CC1 0.453%
CCOCC(=O)N1CCC(N2CC3CC(C2)[C@H]2CCCC(=O)N2C3)CC1 (some centres undefined) -2.05%
CC(=O)NC1(C)CCN(Cc2cccc(-c3cccc4ncccc34)c2)C1 (centres undefined) 0.0467% [at 57.5 µM]
CNC(=O)C(C)(C)N1CCC[C@H]1C(=O)NCc1ccc(OC)cc1 -1.03% [at 57.5 µM]
CNC(=O)[C@@H](c1ccc(Cl)cc1)N1CCC[C@H]1C(=O)N1CCCC1 58.2% [at 57.5 µM]
COc1ccc2c(c1)C(NC(=O)c1cn(CCN)nn1)CC(C)(C)O2 (centres undefined) -0.245%
Cc1ccc(NC(=O)[C@@H]2CNC[C@H](C(=O)NCc3ccccn3)C2)cn1 49.3%
COc1ccc(C(=O)NC[C@@H]2C=C(C)[C@H](Cc3nnc(-c4ccncc4)o3)C[C@H]2C(C)C)cc1 3.43%
COc1ccccc1-c1nnc([C@H]2CCN(Cc3cccnc3)C2)o1 8.65% [at 57.5 µM]
COc1nc(C)c(C(=O)N2CCC(c3[nH]ncc3-c3ccccc3)CC2)s1 3.13%
CN1CCOc2c(C(=O)NCCC(N)=O)cc(-c3ccccc3O)cc21 -2.18% [at 57.5 µM]
CN(Cc1ccccc1)Cc1cc(CC2(NCc3ccc(OC(F)(F)F)cc3)COC2)no1 0.859%
CC(C)CN1CCC(c2nc3ccc(F)cc3c(=O)[nH]2)CC1 -0.658%
CCCNC(=O)N(C1CCOCC1)C1CCN(C(=O)Nc2c(F)cccc2F)CC1 -4.65%
